Consider 60 molecules from PubChem BioAssay AID360 (National Center for Advancing Translational Sciences (NCATS), 2006).

The campaign covered roughly 48,000 compounds. About 550 (1.1%) were called active. Roughly 4% stayed inconclusive and do not appear here. Rule as the data show it: active = potency below about 15 µM; inconclusive = mostly about 16 µM to 33 µM; inactive = weaker than that. The list shows a part of the results. Some results are limits rather than exact numbers.
Potency is read from the fitted curve at half-maximal effect.

This assay has as its target Lysosomal acid glucosylceramidase (Homo sapiens) (UniProt P04062). The experiment in a line: Glucocerebrosidase.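 Also: the screen sought inhibitors.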 The settings on record: purified enzyme, resorufin glucoside fluorescence (screen aimed at inhibitors), 20 min. The procedure, abridged: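 Wild-type enzyme at 0.2 nM final in 50mM citric acid/KH2PO4, 10mM sodium taurocholate, 0.01% tween-20, pH 5.9, with resorufin beta-D-glucopyranoside at 30 uM final. Compounds titrated, 20 min at RT, red fluorescence read; AC50 from titration.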
Sequence of UniProt P04062 (P04062 whole entry, looked up): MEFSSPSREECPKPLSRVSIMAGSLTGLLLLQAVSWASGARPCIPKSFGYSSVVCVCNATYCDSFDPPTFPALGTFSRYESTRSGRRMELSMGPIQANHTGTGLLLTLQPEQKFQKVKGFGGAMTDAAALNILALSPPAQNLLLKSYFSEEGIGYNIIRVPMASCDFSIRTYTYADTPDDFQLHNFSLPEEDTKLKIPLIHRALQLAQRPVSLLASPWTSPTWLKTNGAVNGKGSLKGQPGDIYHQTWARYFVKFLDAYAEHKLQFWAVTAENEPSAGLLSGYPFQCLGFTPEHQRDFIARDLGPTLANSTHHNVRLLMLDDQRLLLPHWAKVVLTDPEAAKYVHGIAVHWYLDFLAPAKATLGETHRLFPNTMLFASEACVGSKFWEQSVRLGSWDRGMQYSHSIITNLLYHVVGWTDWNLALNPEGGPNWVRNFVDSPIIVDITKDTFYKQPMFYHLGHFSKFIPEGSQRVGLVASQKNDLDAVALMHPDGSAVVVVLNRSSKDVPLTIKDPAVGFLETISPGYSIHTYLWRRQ
Consider `Cn1c(Cc2cccs2)n[nH]c1=S`, for which the Potency is inactive: > 76.9 µM.
In the case of `Cc1ccc(-n2c(Cc3cccn3C)nnc2SCC(=O)N2CCc3ccccc32)cc1`, the Potency is inactive: > 76.9 µM.
On to `CSc1ccc(-c2nc(CSCC(=O)N3CCOCC3)c(C)o2)cc1`, for which the Potency is inactive: > 76.9 µM.
For the molecule `Cn1c(=O)c2c(nc(Br)n2CCCc2ccccc2)n(C)c1=O`, the Potency was inactive: > 76.9 µM.
As to `O=c1c2ccccc2oc2nc(-c3ccco3)n(Cc3ccccc3)c(=O)c12`, the Potency is inactive: > 76.9 µM.
Turning to `CC(=O)NCc1ccc(C(=O)CSc2nnc(-c3ccncc3)n2Cc2ccccc2)o1`, the Potency is inactive: > 76.9 µM.
Then `CN1C(=O)CC(C(=O)O)SC1=Nc1cccc(C(F)(F)F)c1` (stereo not given), with inactive: > 76.9 µM.
With `CCOc1cccc(NC(=O)CSc2nncn2N)c1`, the Potency is inactive: > 76.9 µM.
Then `C=CCn1c(-c2c[nH]c3ccccc23)n[nH]c1=S`, with inactive: > 76.9 µM; and `S=c1[nH]ncc2ccccc12`, with inactive: > 76.9 µM.
Take `O=S1(=O)CCC(S(=O)(=O)N2CCCCCC2)C1` (stereo not given): the Potency is inactive: > 76.9 µM.
Then `CC(=O)Nc1cnn(Cc2ccc(Br)cc2)c1`, with inactive: > 76.9 µM; and `COc1cc(NC(=O)c2cc(C)on2)cc(OC)c1OC`, with inactive: > 76.9 µM; and `COc1ccccc1-n1nc(C(=O)NCc2ccco2)c2ccccc2c1=O`, with inactive: > 76.9 µM.
Then `O=C(COC(=O)c1ccccn1)Nc1ccccc1Cl`, with inactive: > 76.9 µM; and `CSc1nnc(-c2cnccn2)n1C`, with inactive: > 76.9 µM.
For the molecule `CCC(=O)N1CCc2cc(S(=O)(=O)CCC(=O)NCc3ccc4c(c3)OCO4)ccc21`, the Potency is inactive: > 76.9 µM.
`Cc1ccc(S(=O)(=O)N2CCOCC2)cc1C(=O)Nc1ccccn1`: the Potency is inactive: > 76.9 µM.
`Cc1cc(CN(C)C)c(O)c(C2(C)CCCCC2)c1`: the Potency result is “inactive”.
The result for `O=C(Cc1ccccc1)NC1CCN(S(=O)(=O)c2cccc(F)c2)CC1` reads inactive: > 76.9 µM; that for `O=C1CC(c2ccccc2)n2nc(NC(=O)C3CCCO3)nc2N1` (stereo not given), inactive: > 76.9 µM.
The result for `Cc1c(Cl)cccc1NC(=O)CSc1nnc(C)n1-c1ccccc1` reads inactive: > 76.9 µM.
Turning to `Cc1cc(C)c2c(n1)sc1c(O)cc(=O)[nH]c12`, the Potency is inactive: > 76.9 µM.
The result for `CCCCCNC(=O)CCn1c(=O)oc2ccccc21` reads inactive: > 76.9 µM; that for `CC(C)(CNC(=O)C1CCCC1)CNC(=O)C1CCCC1`, inactive: > 76.9 µM; that for `O=C(COc1ccc(F)cc1Br)NCc1ccccn1`, inactive: > 76.9 µM.
Then `Cn1c(NC(=O)c2cccc(Cn3cc(Cl)cn3)c2)nc2ccccc21`, with inactive: > 76.9 µM; and `Cc1cc(NC(=O)CSc2nc(-c3ccccc3)c(C#N)c(=O)[nH]2)no1`, with inactive: > 76.9 µM.
Regarding `CCOc1ccc(S(=O)(=O)Nc2cc(OC)ccc2OC)cc1`, the Potency was inactive: > 76.9 µM.
For the molecule `CN1C(=O)CC(N2CCN(CCN=CC3=C(O)CC(C)(C)CC3=O)CC2)C1=O` (stereo not given), the Potency is inactive: > 76.9 µM.
The result for `CCOC(=O)c1ccccc1NC(=O)COC` reads inactive: > 76.9 µM; that for `Cn1c(=O)oc2cc(S(=O)(=O)NCCC(=O)NC3CCCC3)ccc21`, inactive: > 76.9 µM.
Then `O=C(Cn1cnc2c(nnn2Cc2ccc(F)cc2)c1=O)NCc1ccc2c(c1)OCO2`, with inactive: > 76.9 µM.
On to `Cc1nc2c(C(=O)N3CCCC3)c[nH]n2c(=O)c1Cc1ccc(F)cc1Cl`, for which the Potency is inactive: > 76.9 µM.
With `CCCCn1cnc2cc(NCc3ccncc3)ccc21`, the Potency was inactive: > 76.9 µM.
Turning to `COCC(C)NCc1ccc(C)cc1C` (stereo not given), the Potency was inactive: > 76.9 µM.
The result for `Nc1ccccc1C(=O)Nc1cccc(C(=O)O)c1` reads inactive: > 76.9 µM; that for `Cc1ccc(Cn2c(SCC(N)=O)nc3c2c(=O)n(C)c(=O)n3C)cc1`, inactive: > 76.9 µM; that for `NC(=O)CSc1nnc(COc2ccccc2)n1CCc1ccccc1`, inactive: > 76.9 µM.
Then `Clc1cccc(-c2nn3c(Cn4cnc5ccccc54)nnc3s2)c1`, with inactive: > 76.9 µM; and `Cc1csc(NC(=O)C2CCCN2C(=O)Oc2ccccc2)n1` (stereo not given), with inactive: > 76.9 µM; and `Cc1nnc2sc(-c3ccc(-c4ccc(Cl)c(C(F)(F)F)c4)o3)nn12`, with inactive: > 76.9 µM.
With `Cn1c(SCC(=O)N2CCc3ccccc32)nc2cccnc21`, the Potency was inactive: > 76.9 µM.
The result for `Cc1nnc(SCC(=O)c2ccc(S(=O)(=O)N3CCOCC3)cc2)n1-c1ccccc1` reads inactive: > 76.9 µM; that for `COc1ccccc1NC(=O)C1CC(=O)OC1c1ccccc1` (stereo not given), inactive: > 76.9 µM; that for `O=S(=O)(c1ccc(S(=O)(=O)N2CCN(C3CCCCC3)CC2)cc1)N1CCCCCC1`, inactive: > 76.9 µM.
The result for `CCCC(=O)Nc1ccc(C(=O)N2CCCC2)cc1` reads inactive: > 76.9 µM.
As to `Cc1cc(C)n2nc(C(=O)OCCOc3cccc(Br)c3)nc2n1`, the Potency was inactive: > 76.9 µM.
Then `CC(=O)c1c(C)n(-c2ccc(N(C)C)cc2)c2ccc(OCC(N)=O)cc12`, with inactive: > 76.9 µM; and `COc1ccc(CC(=O)NC2CCN(CC(=O)N3CCCc4ccccc43)CC2)cc1OC`, with inactive: > 76.9 µM.
The result for `COc1ccccc1NC(=O)Cn1nnc(-c2ccccc2NC(=O)c2ccco2)n1` reads inactive: > 76.9 µM; that for `O=C(NC1CC1)C1CCN(c2ccc(S(=O)(=O)N3CCOCC3)cc2Cl)CC1`, inactive: > 76.9 µM.
The result for `CCCCn1c(SCC(=O)Nc2cc(C)on2)nc2c1c(=O)n(C)c(=O)n2C` reads inactive: > 76.9 µM.
With `CN(C)c1ccc(CNC2CC(C)(C)NC(C)(C)C2)cc1`, the Potency was inactive: > 76.9 µM.
The result for `CCOC(=O)c1c(N)sc2c1CCCC2` reads inactive: > 76.9 µM; that for `COc1ccccc1C(=O)N(Cc1cccs1)C1CCS(=O)(=O)C1` (stereo not given), inactive: > 76.9 µM.
The result for `COc1ccc(OC)c(S(=O)(=O)NCc2csc(-c3ccccc3)n2)c1` reads inactive: > 76.9 µM; that for `CCOC(=O)c1ccc(S(=O)(=O)N2CCN(CC3CC=CCC3)CC2)cc1` (stereo not given), inactive: > 15.4 µM; that for `Cc1ccc2c(c1)N(Cc1ccc3c(c1)OCO3)C(=O)C(C)O2` (stereo not given), inactive: > 76.9 µM.
Turning to `CC(=O)NCCC(Cc1ccccc1)c1ccco1` (stereo not given), the Potency is inactive: > 76.9 µM.
